Data published in the antibiotic and cytotoxicity screens of Wong et al. (2023).
The list shows a part of the results.

Key:
HSkMC = human skeletal muscle cells; assay: cytotoxicity call (relative viability < 0.9); conditions: 10 µM
HepG2 = assay: cytotoxicity call (relative viability < 0.9); conditions: 10 µM
S. aureus RN4220 = assay: growth inhibition call (relative growth <= 0.2); conditions: 50 µM

SMILES | cytotoxicity call (HSkMC) | cytotoxicity call (HepG2) | growth inhibition call (S. aureus RN4220)
c1coc(CNc2nc[n+]3c4c2ncn4CC3)c1 | inactive | inactive | inactive
C[C@@H]1CCCCO[C@H](CN(C)S(=O)(=O)c2cn(C)cn2)[C@H](C)CN([C@H](C)CO)C(=O)c2cc(NS(=O)(=O)c3ccc(F)cc3)ccc2O1 | inactive | inactive | inactive
O=C(C[C@H]1C[C@H]2c3cc(NC(=O)c4cccnc4)ccc3O[C@H]2[C@H](CO)O1)NCc1cc(F)ccc1F | inactive | inactive | inactive
C[C@H](CO)N1C[C@H](C)[C@@H](CN(C)C(=O)Nc2ccc(C(F)(F)F)cc2)Oc2c(NC(=O)C3CCCCC3)cccc2C1=O | inactive | inactive | inactive
C[C@H](CO)N1C[C@H](C)[C@@H](CN(C)Cc2ccc(Oc3ccccc3)cc2)Oc2c(NS(=O)(=O)c3cccs3)cccc2C1=O | inactive | inactive | inactive
C[C@H]1CN([C@@H](C)CO)C(=O)c2cccc(NS(=O)(=O)c3ccc(Cl)cc3)c2O[C@@H]1CN(C)Cc1ccc(Oc2ccccc2)cc1 | inactive | active | inactive
CN[C@H](CC(C)C)C(=O)N[C@H]1C(=O)N[C@@H](CC(N)=O)C(=O)N[C@H]2C(=O)N[C@H]3C(=O)N[C@H](C(=O)N[C@H](C(=O)O)c4cc(O)cc(O)c4-c4cc3ccc4O)[C@H](O)c3ccc(c(Cl)c3)Oc3cc2cc(c3O[C@@H]2O[C@H](CO)[C@@H](O)[C@H](O)[C@H]2O[C@H]2C[C@](C)(N)[C@H](O)[C@H](C)O2)Oc2ccc(cc2Cl)[C@H]1O | inactive | inactive | active
C[C@@H]1CN([C@@H](C)CO)C(=O)c2cc(NS(=O)(=O)c3ccc(Cl)cc3)ccc2O[C@@H](C)CCCCO[C@H]1CN(C)C(=O)c1ccncc1 | inactive | inactive | inactive
C[C@@H]1CN([C@@H](C)CO)S(=O)(=O)c2ccc(C3=CCCCC3)cc2O[C@H]1CN(C)S(=O)(=O)c1cn(C)cn1 | inactive | inactive | inactive
O=C(CCCCCCC(=O)N/N=C/c1cc(I)cc(I)c1O)NO | active | inactive | inactive
C[C@H]1CN([C@@H](C)CO)C(=O)c2cccc(NC(=O)NC3CCCCC3)c2O[C@@H]1CN(C)Cc1ccc(Cl)c(Cl)c1 | inactive | inactive | inactive
C[C@H]1CN([C@@H](C)CO)S(=O)(=O)c2ccc(C#CCN(C)C)cc2O[C@@H]1CN(C)C(=O)Nc1ccccc1F | inactive | inactive | inactive
C[C@H]1CN([C@@H](C)CO)C(=O)c2cc(NC(=O)Nc3cccc4ccccc34)ccc2O[C@H]1CN(C)Cc1ccc(Cl)c(Cl)c1 | inactive | inactive | inactive
Cc1noc(C)c1S(=O)(=O)Nc1ccc2c(c1)CC(=O)N([C@@H](C)CO)C[C@H](C)[C@@H](CN(C)Cc1ccccc1)O2 | inactive | inactive | inactive
C[C@H](CO)N1C[C@H](C)[C@@H](CN(C)C(=O)Nc2ccc(C(F)(F)F)cc2)Oc2ccc(NS(=O)(=O)c3ccc(Cl)cc3)cc2C1=O | inactive | inactive | inactive
C[C@H]1CN([C@@H](C)CO)C(=O)CCCn2nncc2CO[C@@H]1CN(C)C(=O)Nc1ccc2c(c1)OCCO2 | inactive | inactive | inactive
COc1ccc(S(=O)(=O)N(C)C[C@@H]2OCCCC[C@@H](C)Oc3ccc(NC(=O)Nc4cccc5ccccc45)cc3C(=O)N([C@@H](C)CO)C[C@@H]2C)cc1 | inactive | inactive | inactive
NCc1nnc2n1CCC2 | inactive | inactive | inactive
CC(C)NC(=O)N(C)C[C@H]1Oc2cc(C#Cc3ccccn3)ccc2S(=O)(=O)N([C@H](C)CO)C[C@@H]1C | inactive | inactive | inactive
C[C@H]1CN([C@@H](C)CO)C(=O)c2cc(NC(=O)Cc3ccccc3)ccc2O[C@H]1CN(C)C(=O)Nc1ccc(C(F)(F)F)cc1 | inactive | inactive | inactive
CO[C@H]1CN(C)C(=O)c2ccc(NS(=O)(=O)c3ccccc3)cc2OC[C@@H](C)N(C(=O)NC(C)C)C[C@H]1C | inactive | inactive | inactive
COc1ccc(S(=O)(=O)Nc2ccc3c(c2)C(=O)N([C@@H](C)CO)C[C@@H](C)[C@H](CN(C)C(=O)Nc2cccc4ccccc24)O3)cc1 | inactive | inactive | inactive
COc1ccc(NC(=O)N(C)C[C@H]2OCCCC[C@H](C)Oc3ccc(NC(=O)c4ccccc4)cc3C(=O)N([C@@H](C)CO)C[C@@H]2C)cc1 | inactive | inactive | inactive
